Experimental findings from paper PMC4336329 (PLoS ONE, 2015) are described below.

In all, about 310,000 compounds went through this assay and about 2,200 (0.71%) showed an effect of 50% or more. Effects have a minus sign here. The list shows a part of the results.

The target of this assay is human ether-à-go-go-related gene (hERG) potassium channel (human, UniProt Q12809). Kind of assay: primary screen, population patch clamp on CHO cells stably expressing hERG.
human ether-à-go-go-related gene (hERG) potassium channel, sequence (Q12809 whole entry, looked up): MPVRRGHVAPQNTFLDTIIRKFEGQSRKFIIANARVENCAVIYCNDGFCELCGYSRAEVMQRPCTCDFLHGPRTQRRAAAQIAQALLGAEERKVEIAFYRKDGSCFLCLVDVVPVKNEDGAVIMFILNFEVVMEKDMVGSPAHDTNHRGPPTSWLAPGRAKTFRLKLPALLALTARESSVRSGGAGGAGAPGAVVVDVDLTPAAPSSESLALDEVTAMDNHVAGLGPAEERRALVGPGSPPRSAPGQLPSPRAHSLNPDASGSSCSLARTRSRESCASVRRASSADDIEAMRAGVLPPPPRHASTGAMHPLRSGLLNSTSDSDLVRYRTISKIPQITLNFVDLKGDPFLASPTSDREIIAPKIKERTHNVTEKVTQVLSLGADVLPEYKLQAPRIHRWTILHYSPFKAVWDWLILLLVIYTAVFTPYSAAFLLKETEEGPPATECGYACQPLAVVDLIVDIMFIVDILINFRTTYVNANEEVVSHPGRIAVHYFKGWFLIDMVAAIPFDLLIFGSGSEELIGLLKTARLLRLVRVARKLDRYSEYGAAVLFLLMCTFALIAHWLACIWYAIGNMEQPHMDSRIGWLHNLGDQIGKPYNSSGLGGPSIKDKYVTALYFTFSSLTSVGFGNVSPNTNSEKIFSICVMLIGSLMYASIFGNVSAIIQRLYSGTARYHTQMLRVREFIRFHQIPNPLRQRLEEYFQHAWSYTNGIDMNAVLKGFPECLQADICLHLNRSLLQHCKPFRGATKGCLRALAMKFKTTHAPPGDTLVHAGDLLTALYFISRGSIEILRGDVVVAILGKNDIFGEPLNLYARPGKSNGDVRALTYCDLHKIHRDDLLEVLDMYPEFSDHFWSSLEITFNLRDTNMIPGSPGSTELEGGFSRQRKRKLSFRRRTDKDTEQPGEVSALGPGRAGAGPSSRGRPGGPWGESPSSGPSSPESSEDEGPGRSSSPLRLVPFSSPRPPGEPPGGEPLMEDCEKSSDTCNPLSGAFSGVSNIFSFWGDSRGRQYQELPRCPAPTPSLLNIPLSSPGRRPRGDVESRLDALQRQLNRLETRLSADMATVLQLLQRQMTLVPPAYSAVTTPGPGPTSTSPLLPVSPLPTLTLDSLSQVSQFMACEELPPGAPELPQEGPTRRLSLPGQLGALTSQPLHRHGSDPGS
On to `COc1ccc(C(=O)OCCN2CCOCC2)cc1.Cl`, for which the “hERG current change (%, negative = inhibition) at 1uM” value amounted to 5.09%.
With `O=C1c2ccccc2S(=O)(=O)N1Cc1c(F)cccc1Cl`, the “hERG current change (%, negative = inhibition) at 1uM” value amounted to 1.17%.
The same measure for `O=C(NC(=S)N1CCCCCC1)C1CC1`: 12.4%; for `CC(C)(C)C(=O)/C=C/Nc1ccccc1O`: 12.1%.
For `COc1ccc(-c2cn(CC3CCCCC3)nn2)cc1`, the “hERG current change (%, negative = inhibition) at 1uM” value was determined as 13.8%.
The result for `CCc1cc(=O)oc2cc(C)cc(OCC(=O)N3CCC(C(=O)NC(C)C)(c4ccccc4)CC3)c12` reads 0.682%.
The result for `COCCNc1ccc([N+](=O)[O-])cc1C(=O)NC1CCCc2ccccc21` (centres unmarked) reads -6.2%; that for `CC(=O)N1CCN(S(=O)(=O)c2cccc(C(=O)NNC(=O)COc3ccc(F)cc3)c2)CC1`, 5.66%; that for `O=C(CSc1ccccn1)N/N=C/c1ccccc1[N+](=O)[O-]`, -6.73%.
The result for `Cc1nnc2ccc(N3CCCC3)nn12` reads 11.1%; that for `COc1ccc(NC(=O)CSc2nc3scc(C)c3c(=O)[nH]2)cc1`, 5.48%.
Regarding `Cc1cccc(NC(=O)[C@@H]2CCCN2C(=O)OC(C)(C)C)c1C`, the “hERG current change (%, negative = inhibition) at 1uM” value was 6.11%.
On to `O=C(O)c1ccc(NS(=O)(=O)c2cccc(C(=O)Nc3ccc([N+](=O)[O-])cc3)c2)cc1`, for which the “hERG current change (%, negative = inhibition) at 1uM” value is listed as 16.7%.
`COc1cccc(C(=O)c2c[nH]c(C(=O)NCCCN(C)C)c2)c1`: the “hERG current change (%, negative = inhibition) at 1uM” value is 8.91%.
The result for `O=C(CNCC1CCCCC1)Nc1cccc(S(=O)(=O)N2CCOCC2)c1` reads 12.7%; that for `CCN(CC(=O)Nc1c(F)cccc1F)C(=O)c1ccc(S(=O)(=O)N2CCCCC2)cc1`, 3.07%.
The same measure for `COCCn1c(SCC(=O)Nc2cccc(C)n2)nnc1-c1ccco1`: 12.8%; for `Cc1c(N=Cc2ccc(Cl)o2)c(=O)n(-c2ccccc2)n1C`: 4.28%.
Take `CCOc1ccc(-c2n[nH]c(C)c2Oc2ccccc2OC)c(O)c1`: the “hERG current change (%, negative = inhibition) at 1uM” value was found to be 12.4%.
For the compound `COc1cc([N+](=O)[O-])ccc1-c1ccc(/C=N/NC(N)=O)o1`, the “hERG current change (%, negative = inhibition) at 1uM” value is recorded as 12.3%.
The result for `N#C/C(=C1/C(=O)Nc2ccc(Br)cc21)c1ccccn1` reads 11.6%; that for `CCN1CCN(C(=O)CN(CC)S(=O)(=O)c2ccc3ccccc3c2)CC1`, 8.7%; that for `CCN(CC)CCNC(=O)C(=O)Nc1ccc2c(c1)N(S(=O)(=O)c1cccs1)CCC2`, -23.6%.
The result for `CCCc1cc(=O)n2nc(N3CCC(C(=O)Nc4c(F)c(F)c(F)c(F)c4F)CC3)sc2n1` reads -2.57%; that for `O=C(CSc1nc2ccccc2c(=O)n1CCCO)NC1CC1`, 4.35%; that for `CCC(CC)C(=O)OCC(=O)Nc1cc(OC)c([N+](=O)[O-])cc1C`, -7.12%.
The result for `COC(=O)c1cc(COc2ccc3oc(C)c(C(=O)OC)c3c2)c(C)o1` reads 5.44%; that for `CC1CCN(C(=O)c2ccc(NC(=O)CC3SC(N4CCCC4)=NC3=O)cc2)CC1` (centres unmarked), 17.1%; that for `O=C(NCCCN1CCOCC1)c1onc(CSc2ccncc2)c1C(=O)NCCCN1CCOCC1`, 3.33%.
Take `CCOC(=O)c1ccc(-n2c(C)nc3ccccc3c2=O)cc1`: the “hERG current change (%, negative = inhibition) at 1uM” value came to 2.26%.
As to `O=C(c1ccc(CS(=O)(=O)Cc2ccccc2)cc1)N1CCCCC1`, the “hERG current change (%, negative = inhibition) at 1uM” value is on record as 25%.
The same measure for `CC(=O)Nc1c([N+](=O)[O-])cc2[nH]c(=O)[nH]c2c1[N+](=O)[O-]`: 13.6%; for `Oc1ccccc1Nc1ccccn1`: 12.5%.
The result for `CCOc1ccccc1C(=O)Nc1ccc(-n2nncc2C(C)(C)C)cc1` reads 6.74%.
Take `Cc1ccc(/C=N/NC(=O)c2nnn(-c3nonc3N)c2C(C)C)o1`: the “hERG current change (%, negative = inhibition) at 1uM” value worked out at 7.2%.
Take `O=C(Nc1cccc2cccnc12)c1ccccc1Br`: the “hERG current change (%, negative = inhibition) at 1uM” value is on record as 9.36%.
The same measure for `COc1ccc(S(=O)(=O)NCC2CCCN(C(=O)CCC(F)(F)F)C2)cc1` (centres unmarked): 7.38%; for `COc1ccc(S(=O)(=O)N2CC(C)N(S(=O)(=O)c3ccc(OC)cc3)CC2C)cc1` (centres unmarked): -6.25%.
As to `O=c1cccc(-c2ccc(Br)cc2)o1`, the “hERG current change (%, negative = inhibition) at 1uM” value worked out at 7.49%.
Take `CC(C)(C)c1cc(-c2ccco2)c(C#N)c(SCC#N)n1`: the “hERG current change (%, negative = inhibition) at 1uM” value is reported as 16.6%.
The result for `O=C(N/C(=C/c1ccccc1)C(=O)N1CCOCC1)c1ccc([N+](=O)[O-])cc1` reads -19.6%.
Take `Cc1cc(C(=O)Nc2sc3c(c2C#N)CCC(C(C)(C)C)C3)no1` (centres unmarked): the “hERG current change (%, negative = inhibition) at 1uM” value is -3.87%.
For `COc1ccc(C(=O)N(C)C2CCCc3ccccc32)cc1OC1CCN(C(C)C)CC1` (centres unmarked), the “hERG current change (%, negative = inhibition) at 1uM” value is -0.15%.
As for `CC(=O)N1CCN(Cc2nc3cc(NC(=O)c4ccccc4C)ccc3n2C)CC1`, the “hERG current change (%, negative = inhibition) at 1uM” value amounted to 9.4%.
